# Laboratory results reported in PubChem BioAssay AID1745853 (National Center for Advancing Translational Sciences (NCATS), 2022).
# The list shows a part of the results. These are further read-outs of the screen, such as a control signal, another cell line or another target. No call is given for them.
# What was measured:
# Assay in all cases: Primary Screen for Target Class Profiling of Small Molecule Inhibitors of Methyltransferases
# [1] = molecular target: Glycine N-methyltransferase (Homo sapiens) (UniProt Q14749); conditions: purified enzyme, MTase-Glo SAH luminescence; measured here: GNMT inhibition; at 40 µM; stronger effect = lower value
# Outline: (§1)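 Each enzyme was assayed with SAM and its substrate. SAH formation detected by MTase-Glo luminescence; single-point 40 uM screen[…].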
# [2] = molecular target: Guanidinoacetate N-methyltransferase (Homo sapiens) (UniProt Q14353); conditions: purified enzyme, MTase-Glo SAH luminescence; measured here: GAMT inhibition; at 40 µM; stronger effect = lower value
# Outline: as §1
# [3] = molecular target: Histamine N-methyltransferase (Homo sapiens) (UniProt P50135); conditions: purified enzyme, MTase-Glo SAH luminescence; measured here: HNMT inhibition; at 40 µM; stronger effect = lower value
# Outline: as §1
# [4] = molecular target: Nicotinamide N-methyltransferase (Homo sapiens) (UniProt P40261); conditions: purified enzyme, MTase-Glo SAH luminescence; measured here: NNMT inhibition; at 40 µM; stronger effect = lower value
# Outline: as §1
# [5] = molecular target: Phenylethanolamine N-methyltransferase (Homo sapiens) (UniProt P11086); conditions: purified enzyme, MTase-Glo SAH luminescence; measured here: PNMT inhibition; at 40 µM; stronger effect = lower value
# Outline: as §1
# % is scaled to controls: 0 for no effect and ±100 for the full control effect.
Compound,"activity change, negative = inhibition [1]","activity change, negative = inhibition [2]","activity change, negative = inhibition [3]","activity change, negative = inhibition [4]","activity change, negative = inhibition [5]"
O=C1CCN(C(=O)[C@@H]2CCCN2C(=O)Nc2ccccc2)CCCCCCN1,-5.51%,-3.48%,-0.06%,-5.67%,0.745%
Cc1cccc(CC(=O)N2CCCn3cc(-c4cccc(C#N)c4)nc32)c1,-8.29%,-6.25%,-23.4%,-16.1%,-7.36%
Cn1nccc1-c1cc2c(cn1)CN(Cc1ccncc1)CCN2,-10.5%,-6.31%,-61.6%,-25.1%,-13.8%
C[C@H]1CC[C@@]2(OC1)O[C@H]1CC3C4CC=C5C[C@H](O)C[C@@H](O[C@@H]6O[C@@H](C)[C@H](O)[C@@H](O)[C@H]6O[C@@H]6O[C@@H](C)[C@H](O)[C@@H](O)[C@H]6O)[C@]5(C)C4CC[C@]3(C)[C@H]1[C@@H]2C (stereo not given in full),0%,19.1%,9.05%,4.21%,5.8%
Cc1cn(C[C@H](N)C(=O)O)c(=O)n(Cc2ccsc2C(=O)O)c1=O,-0.388%,4.06%,9.77%,-9.91%,5.5%
CCCc1noc(-c2cccn3c(CNC(=O)c4ccc(OCC)cc4)nnc23)n1,-7.05%,-5.34%,-4.46%,-9.03%,3.18%
Cc1ccc(CNC(=O)C2(C)Cn3nc(C(=O)NCc4ccccn4)cc3C(=O)N2C)cc1 (stereo not given),4.79%,3.24%,-4.98%,4.36%,5.36%
CN(C)C(=O)c1nc2sccn2c1Br,404%,-7.47%,-0.836%,-14.2%,-7.58%
CCc1ccccc1NC(=O)Cn1nc2n(C(C)C)c(=O)c3ccc(C(=O)NC(C)C)cc3n2c1=O,1.75%,0%,4.55%,-5.5%,3.03%
CN(Cc1nc(-c2ccccc2)cs1)C(=O)c1cccc(-n2cnnc2)c1,-3.33%,-2.87%,-2.79%,-10.6%,5.88%
CCCNC(=O)c1ncn2c1C(=O)N(C1CC1)C(C)(C(=O)NCc1ccc(F)cc1)C2 (stereo not given),4.5%,0%,12.3%,8.23%,7.85%
O=C(CN1CCOC1=O)N1CCn2nc(C(O)Cc3ccccc3)cc2C1 (stereo not given),-2%,-0.683%,1.34%,-0.03%,4.62%
O=C(NC1CCCCC1)O[C@@H]1CO[C@H]2[C@@H]1OC[C@@H]2n1nnnc1SCc1ccco1,-8.1%,-4.7%,-1.86%,-0.837%,-1.4%
CN(CC1CCOC1)C(=O)NCc1ccc(F)cc1 (stereo not given),-4.2%,-6.89%,-0.71%,-11.9%,-7.43%
CNC(=O)CN1CCC(Oc2cc3c(Nc4cccc(Cl)c4F)ncnc3cc2OC)CC1,-54.4%,-24.6%,-46.4%,-32.7%,-37.5%
COc1ccc(NC(=O)Cn2nc3n(CC(C)C)c(=O)c4ccccc4n3c2=O)cc1OC,-5%,5.84%,0.888%,-4.92%,-3.02%
CC(C)CCNC(=O)C1(C)Cn2nc(C(=O)NCc3cccnc3)cc2C(=O)N1C (stereo not given),1.86%,4.96%,1.5%,3.87%,0.486%
CCCN1C(=O)c2c(C(=O)NCc3ccccc3)ncn2CC1(C)C(=O)NCCC(C)C (stereo not given),4.87%,1.05%,9.98%,0.126%,11.3%
O=C(O)[C@@H]1CN(C(=O)Cc2ccc(O)cc2)C[C@H]1c1cccc(F)c1,-4.76%,-5.33%,-1.58%,-3.42%,-5.22%
Cc1ccc(S(=O)(=O)NC[C@H]2OC[C@@H](N(C)C)[C@@H]2O)cc1,-1.87%,-2.05%,0.601%,-3.7%,-1.43%
CCOc1ccccc1NC(=O)N1CCCCC1CCn1cc(C(=O)NCC2CC2)nn1 (stereo not given),-0.97%,2.32%,2.52%,-4.31%,12.4%
CCCn1c(=O)c2ccccc2n2c(=O)n(Cc3cccc(Cl)c3)nc12,-5.55%,3.48%,1.18%,-5.38%,-0.725%
CCCS(=O)(=O)Nc1ccc(F)c(C(=O)c2c[nH]c3ncc(Cl)cc23)c1F,-17.5%,-2.03%,5.36%,-19.6%,-4%
CCOc1ccccc1CN1C(=O)c2cc3sccc3n2CC1(C)C(=O)NC1CCCC(C)C1C (stereo not given),-4.96%,3.6%,-4.96%,2.34%,-2.49%
COc1ccc(OC)c(CN2CCNc3cc(-c4ccnc(C)c4)ncc3C2)c1,-33.7%,-11.5%,-93.8%,-38.5%,-8.34%
CCOC(=O)c1cc2n(n1)CC(C)(C(=O)NC1CCCCC1)N(Cc1ccc3c(c1)OCO3)C2=O (stereo not given),-0.258%,4.89%,-15.7%,-0.749%,3.21%
O=c1[nH]c(-c2ccc(C(F)(F)F)cc2)nc2c1CSCC2,0.059%,-15.9%,8.54%,-24.1%,-4.03%
COc1ccc(Nc2nc3c(S(=O)(=O)c4ccc(F)cc4)nnn3c3ccccc23)cc1,-0.008%,2.38%,4.06%,4.17%,-1.35%
COc1ccc(CCNC(=O)CCCc2nnc3n4nc(C)nc4c4ccccc4n23)cc1OC,-7.65%,5.25%,5.01%,9.16%,-0.725%
